Publication PMC6919601, “Identification of Plasmodium dipeptidyl aminopeptidase allosteric inhibitors by high throughput screening” (PLoS ONE, 2019)
The campaign covered roughly 110,000 compounds. About 230 (0.21%) showed an effect of 50% or more. This is one part of the list.

Molecular target: DPAP1 (Plasmodium falciparum, UniProt Q8IIJ9)
Assay: primary screen, percent inhibition; read by cleavage of a fluorogenic dipeptide substrate; higher = more effect of the substance
Set-up: species or system P. falciparum D10 trophozoite lysates; single well
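Also: 30 min substrate incubation versus DMSO and 10 µM JCP410 controls.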

DPAP1, sequence (Q8IIJ9 whole entry, looked up): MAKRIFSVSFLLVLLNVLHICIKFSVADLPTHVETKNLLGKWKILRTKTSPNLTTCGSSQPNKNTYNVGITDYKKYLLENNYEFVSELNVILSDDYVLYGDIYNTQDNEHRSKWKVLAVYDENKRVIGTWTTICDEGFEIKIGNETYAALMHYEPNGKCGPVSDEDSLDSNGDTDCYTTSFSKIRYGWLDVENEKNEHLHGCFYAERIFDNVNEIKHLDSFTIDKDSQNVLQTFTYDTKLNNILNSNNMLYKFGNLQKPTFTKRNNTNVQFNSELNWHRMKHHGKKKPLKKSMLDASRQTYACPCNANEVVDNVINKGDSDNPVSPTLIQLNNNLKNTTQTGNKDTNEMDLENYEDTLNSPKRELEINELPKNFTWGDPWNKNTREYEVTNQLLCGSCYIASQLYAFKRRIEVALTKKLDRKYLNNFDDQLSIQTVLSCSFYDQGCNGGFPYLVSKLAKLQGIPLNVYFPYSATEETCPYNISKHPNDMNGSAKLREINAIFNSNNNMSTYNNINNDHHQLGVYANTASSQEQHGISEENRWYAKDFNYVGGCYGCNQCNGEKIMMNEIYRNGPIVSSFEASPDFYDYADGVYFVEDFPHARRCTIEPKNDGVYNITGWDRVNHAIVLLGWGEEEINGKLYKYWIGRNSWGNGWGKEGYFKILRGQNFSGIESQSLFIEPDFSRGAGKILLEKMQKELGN

Structure (SMILES)	% Inhibition @ 10 uM [%]
O=C(COC(=O)c1ccccc1F)c1ccc(Br)cc1	-4.26
O=C(Nc1cccc2cccnc12)c1cccc(C(=O)Nc2cccc3cccnc23)n1	-0.318
CC1=NCCN1CCOC(c1ccccc1)c1ccc(Cl)cc1Cl (stereo not shown)	0.472
Cn1ncc2c(NC34CC5CC(CC(C5)C3)C4)ncnc21	-2.14
N#CC1=C(N)Oc2[nH]nc(-c3ccccc3)c2C1c1cccc(O)c1 (stereo not shown)	4.32
CC1(C)CC(=O)C2=C(C1)N=C(S)C(C#N)C21CCCCC1 (stereo not shown)	41.6
COC(=O)c1cc(S(=O)(=O)N2CCN(Cc3ccccc3)CC2)c[nH]1	3.35
Cc1ccc(OCCCc2c(C)n[nH]c2C)cc1C	1.83
CCCCCn1c(=O)c(C(=O)Nc2nc3ccccc3s2)c(O)c2ccccc21	-10.8
COc1ccc(CC(=O)Nc2ccc(S(=O)(=O)N3CCCC3)cc2)cc1	-1.17
CCOCCCNC(=O)C1CCN(c2nnc(C)c3c(C)n(-c4ccccc4)nc23)CC1	2.14
CCOc1ccc(-c2[nH]nc3c2C(c2cc(OC)ccc2OC)NC3=O)cc1 (stereo not shown)	0.708
O[C@]12CCCC[C@@H]1[C@@H](c1ccc3c(c1)OCO3)NCC2	-0.415
CC(C)(C)c1ccc(C(=O)Nc2ccc3c(c2)OCO3)cc1	5.29
CCO/C(O)=C1/C(C)=Nc2nc(N)nn2C1c1ccccc1OC (stereo not shown)	-1.62
COc1ccc(NS(=O)(=O)c2ccc(NC(=O)c3ccn(C)n3)cc2)cc1	4.44
CCc1nc(C)cc(N)c1OCc1ccccc1	-4.51
COc1ccc(NC(=N)Nc2nc(O)c3c(n2)CCC3)cc1	4.59
Cc1ccccc1OCc1nc(C#N)c(NCCc2ccccc2)o1	-1.98
CSCCCN1CC(C)OC(C)C1 (stereo not shown)	0.217
O=C1C2C(C(=O)N1c1ccccc1Br)C1C=CC2C12CC2 (stereo not shown)	-2.8
CCN(CC)CCCNC(=O)C1CCC(CNS(=O)(=O)c2ccc(Cl)cc2)CC1 (stereo not shown)	2.35
COc1ccc(N(CC(=O)NC2CCCCC2)S(=O)(=O)c2ccccc2)cc1OC	3.26
COc1ccccc1OCCSc1nc2ccccc2[nH]1	0.716
COc1ccc(NC(=O)CN(c2ccccc2F)S(=O)(=O)c2ccccc2)cc1OC	-1.95
Cc1ccc(N2C(=O)CSC2=S)cc1	0.317
CCc1nn2c(=O)cc(COc3ccc(/C=C4/C(=N)N5C=C(C)SC5=NC4=O)cc3)nc2s1	-2.19
CC1CCN(C(=O)C2CCCN(S(=O)(=O)c3ccc4[nH]c(-c5ccccc5)nc4c3)C2)CC1 (stereo not shown)	0.309
